The values that follow come from PubChem BioAssay AID1963576 (National Center for Advancing Translational Sciences (NCATS), 2024).

Molecules are shown by their SMILES. Out of some 46,000 compounds screened, about 60 (0.1%) were called active. Another 3% or so got no clear call; they are omitted. Calls come from the whole dose curve; as a rule, active = well fitted inhibition curve with a large enough effect; inconclusive = small, poorly fitted or top-dose-only effect; inactive = no such curve, though single readings can be large or run the other way. The list shows a part of the results.

The experiment is described as follows: Primary qHTS assay for Inhibitors of ovarian cancer metastasis using an organotypic tumor microenvironment (TME) model.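 For activity change, negative = inhibition: plate controls were DMSO wells for no effect and tomatine positive control wells for full effect.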 Note: nearly all actives have a fitted effect of over 65% in size. The note with it: SKOV3ip1-GFP adhesion/invasion on 3D omental model, fluorescence; series mostly up to 45.8 µM; activity change, negative = inhibition: at the top concentration. In a few lines:
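qHTS, 4-pt dose (0.36-46 umol/L); SKOV3ip1-GFP, 1,200 cells/well, no FBS; primary omental fibroblast/mesothelial co-culture 48 h pre-grown; 2 h RT + 16 h 37 C; PBS wash, 4% PFA; GFP count 488/509 nm.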
Regarding `COc1ccc(-c2nc(CCNC(=O)c3ccccc3)cs2)cc1OC`, the “activity change, negative = inhibition” value is inactive: -26.2%.
On the same count and under the same terms, the same measure for `Fc1ccc(-c2cc(-c3ccccc3)c3c(n2)-c2ccccc2OC3)cc1`: inactive: 3.06%; for `Fc1ccc(-c2csc(=Nc3cccc(C(F)(F)F)c3)n2Cc2ccc3c(c2)OCO3)cc1`: inactive: 0.418%.
The same measure, in the same setting: to `COc1ccc(-c2cn3c(n2)sc2cc(C(=O)NCCCN4CCCCC4)ccc23)cc1` belongs inactive: -23.8%.
Take `CCN(C(=O)CSc1nnc(-c2cc3occc3n2C)n1-c1ccccc1C)c1cccc(C)c1`: the compound was called inactive.
Regarding `CCCS(=O)c1ccc2nc(NC(=O)OC)[nH]c2c1` (configuration not stated), the “activity change, negative = inhibition” value was inactive: 24%.
As for `COc1ccc(NC(=O)CN2C(=O)CCc3cc(S(=O)(=O)N4CCOCC4)ccc32)c(OC)c1`, the result was inactive.
The same measure, in the same setting: to `CCOc1ccccc1NC(=O)Cn1c(=O)n(-c2ccccc2)c(=O)c2c1c1cc(C)ccc1n2C` belongs “inactive”.
Still for that read-out and setting: the same measure for `CCc1nn(CC(=O)N(CC)Cc2ccccc2)c(=O)c2cc3occc3n12`: “inactive”.
In the case of `Cc1nn(CCCC(=O)Nc2cc(C(F)(F)F)ccc2Cl)c(=O)c2c1sc1ccccc12`, the “activity change, negative = inhibition” value is inactive: 4.91%.
On the same count and under the same terms, the same measure for `CCNC(=O)c1c(C)oc2ncn(C)c(=O)c12`: inactive: 3.5%; for `CCc1ccc(CNC(=O)CSc2cc(=O)n(CC)c3ccccc23)cc1`: inactive: -1.9%; for `COc1ccc(N2CCN(C(=O)c3ccc4c(=O)n(CCc5ccc(OC)c(OC)c5)c(=O)[nH]c4c3)CC2)cc1`: inactive: -11.3%.
With `CCN(CC)C(=O)c1cnn(-c2ccc(F)cc2)c1-n1cccc1`, the call was inactive.
In the case of `CCc1ccc(NCc2cc3cc4c(cc3n(CC(=O)Nc3ccccc3Cl)c2=O)OCO4)cc1`, the “activity change, negative = inhibition” value is inactive: 3.93%.
On the same count and under the same terms, the same measure for `CCOCCCNC(=O)C1CCN(c2cc(C)nc3c(-c4ccc(Cl)cc4)c(C)nn23)CC1`: inactive: 15.4%; for `Cc1ccc(-c2cn3c(n2)sc2cc(C(=O)NC4CCCc5ccccc54)ccc23)cc1` (configuration not stated): inactive: 15.9%.
On the same count and under the same terms, to `Clc1ccc2nc(Nc3ccccc3Cl)nc(-c3ccccc3)c2c1` belongs inactive: -4.97%.
For `CCOc1ccc(-n2c(=O)c3c4c(sc3n(Cc3cccc(C)c3)c2=O)CCCC4)cc1`, the call was inactive.
As to `CCc1ccc(NS(=O)(=O)c2ccc3[nH]cc(C(=O)NCc4ccc(C)cc4)c(=O)c3c2)cc1`, the “activity change, negative = inhibition” value was inactive: -3.56%.
The same measure, in the same setting: the same measure for `COc1ccc(CNC(=O)c2cc3c(-c4ccccc4F)nn(C)c3s2)cc1`: inactive: 10.4%.
Regarding `COc1ccc(NC(=O)Cn2c(=O)n(CC(=O)NCCc3ccccc3)c(=O)c3ccccc32)cc1`, the outcome was inactive.
`COc1ccc(OC)c(NC(=O)c2c(NCc3ccc(OC)c(OC)c3)sc3c2CCC3)c1`: the “activity change, negative = inhibition” value was inactive: 4.29%.
As for `Cc1ccc(NC(=O)c2cc3c(-c4ccccc4)nn(-c4ccccc4)c3s2)cc1`, the call was inactive.
Take `O=C(Nc1ccc(Br)cc1F)C(NS(=O)(=O)c1cccc2nsnc12)c1ccccc1` (configuration not stated): the “activity change, negative = inhibition” value is inactive: 9.01%.
The same measure, in the same setting: to `COc1cccc(Cc2nc3ccccc3nc2SCC(=O)N2CCN(c3ccccc3)CC2)c1` belongs inactive: -6.15%; to `O=C(Cn1c(-c2cccs2)cc2cc(F)ccc21)N1CCN(c2cccc(Cl)c2)CC1`, inactive: -18.8%.
The same measure, in the same setting: to `Cc1ccccc1Cn1c2ccccc2c2cnn(CC(=O)NCCCc3ccccc3)c(=O)c21` belongs inactive: -9.52%.
Take `COc1cc(-c2noc(-c3ccc(N(C)C)c([N+](=O)[O-])c3)n2)cc(OC)c1OC`: the outcome was inactive.
In the case of `Cc1ccc(CCNc2nc3c(S(=O)(=O)c4ccccc4)nnn3c3ccsc23)cc1`, the “activity change, negative = inhibition” value is inactive: -3.52%.
With `Cc1c(C(=O)NCc2ccccc2)sc2nc[nH]c(=O)c12`, the “activity change, negative = inhibition” value is inactive: 16.1%.
Still for that read-out and setting: to `O=C(Nc1cc(-c2nc3ccccc3o2)ccc1Cl)c1ccc(Br)o1` belongs inactive: 12%.
Same read-out and setting: the same measure for `COc1ccc(-c2cc(C(F)(F)F)nc(NCc3ccc(Cl)cc3)n2)cc1`: inactive: 3.69%.
Still for that read-out and setting: the same measure for `COc1ccccc1CNC(=O)CSc1cc(=O)n(C)c2ccccc12`: inactive: 3.29%; for `Cn1nc(C(=O)N2CCN(c3ccc(Cl)cc3)CC2)c2c1-c1ccccc1S(=O)(=O)C2`: inactive: 3.02%.
Take `CCOc1ccc(Nc2sc(C(=O)c3ccc4c(c3)OCO4)c(N)c2S(=O)(=O)c2ccc(C)cc2)cc1`: the call was inactive.
`COc1cccc2c1cc1c(=O)n(CC(=O)O)nc(C)n12`: the “activity change, negative = inhibition” value is inactive: 4.97%.
`CCC1CN(C(=O)Nc2cccc(OC)c2)c2ccccc2O1` (configuration not stated): the outcome was inactive.
As to `CC(=O)Nc1ccc(S(=O)(=O)NC2(C(F)(F)F)NC(=O)N(c3ccccc3F)C2=O)cc1` (configuration not stated), the “activity change, negative = inhibition” value was inactive: 0.724%.
Still for that read-out and setting: the same measure for `CCOc1ccc(-c2c(C)nn3c(C)c(C(=O)NCCc4ccccc4)cnc23)cc1OCC`: inactive: -0.0403%.
For `COc1ccc2c(c1)c1c(c(=O)n(-c3ccc(F)c(Cl)c3)c(=O)n1CC(N)=O)n2C`, the compound was classed as inactive.
On the same count and under the same terms, to `COc1ccc(-n2c(=O)c3ccc(C(=O)NCc4ccc(C)cc4)cc3n(Cc3cccc(Cl)c3)c2=O)cc1` belongs “inactive”.
In the case of `COc1cccc(-c2cc(C(=O)Nc3ccc(Br)c(C)c3)[nH]n2)c1`, the “activity change, negative = inhibition” value is inactive: -7.62%.
Regarding `Cc1ccc2c(c1)cc1c(=O)n(Cc3ccc(Cl)cc3)nc(C)n12`, the result was inactive.
Regarding `O=C1CC(c2nnc(Cc3cccc(Cl)c3)o2)CN1c1ccccc1` (configuration not stated), the “activity change, negative = inhibition” value is inactive: 0.0919%.
Same read-out and setting: the same measure for `CC(C)(Sc1ccc(CCN(CCCCC2CCCCC2)C(=O)NC2CCCCC2)cc1)C(=O)O`: inactive: 10.8%.
Same read-out and setting: to `CC1CCCCN1S(=O)(=O)c1cc2c(=O)nc3ccccn3c2cc1Cl` (configuration not stated) belongs inactive: -1.62%.
